PubChem BioAssay AID686978 (National Center for Advancing Translational Sciences (NCATS), 2013)
“And” between values parts separate entries of the source, which are not always exact repeats. Identical values can stand only once. The whole screen tested about 420,000 compounds, of which about 64,000 (15%) were called active. The inconclusive results got no clear call from the source; some entries with a clear call stand among them for comparison. Calls come from the whole dose curve; as a rule, active = well fitted inhibition curve with a large enough effect; inconclusive = small, poorly fitted or top-dose-only effect; inactive = flat fitted curve, though single readings scatter. Where the call is inconclusive, the potency comes from a doubtful curve fit.
Potency is the fitted concentration of half-maximal effect; tags give direction and shape of the fitted curve.

Assay: qHTS for Inhibitors of human tyrosyl-DNA phosphodiesterase 1 (TDP1): qHTS in cells in absence of CPT; note: nearly all actives have a fitted effect of over 55% in size
Conditions: DT40 Tdp1-/- hTDP1 cells, no CPT, ATP luminescence, 48 h; series mostly up to 46.2 µM
Procedure, shortened: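 Readout: luminescence from CellTiter-Glo after 30 min in the dark at RT. Cells: DT40 Tdp1-/- with stable hTDP1, 400/well. Exposure: compounds alone, ≥48 hr, 37 °C.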
With `CCn1cc(CNCc2cn[nH]c2-c2cc3ccccc3o2)cn1` the Potency was active: 23.1 µM. With `CC(C)c1ccccc1NC(=O)Nc1nnc([C@H]2C[C@H](O)[C@@H](CO)O2)s1` the Potency was “inactive”. In the case of `COc1ccccc1C(=O)COC(=O)c1cc(S(=O)(=O)N2CCCCC2)ccc1N1CCOCC1`, the Potency is reported as inconclusive: 29.1 µM [inhibitor, single point]. For `C#CC(C)(CC)NC(=O)Cn1nnc(-c2cccc(C(F)(F)F)c2)n1` (stereo unspecified), the Potency was “inactive”. With `Cc1cccc(NC(=O)c2cnc3scc(C)n3c2=O)c1` the Potency was inconclusive: 25.9 µM [inhibitor, single point]. For `CCOc1ccccc1C(=O)NC(C(=O)NCCc1ccccn1)C(C)C` (stereo unspecified), the Potency was inconclusive: 29.1 µM [inhibitor, single point]. For `C(=C1c2ccccc2Oc2ccccc21)c1ccccc1`, the Potency was inconclusive: 35.5 µM [inhibitor, single point]. For `COc1ccc(N2C(=O)CC(Sc3n[nH]c(-c4ccc(C)cc4)n3)C2=O)cc1` (stereo unspecified), the Potency was active: 10.3 µM. In the case of `CCn1cc(CCC(=O)NCc2ccc(C)cc2)c2ccccc21`, the Potency is reported as inconclusive: 29.1 µM [inhibitor, single point]. With `COc1ccc(CCNC(=O)C(CC(C)C)N2Cc3ccccc3C2=O)c(OC)c1OC` (stereo unspecified) the Potency was inconclusive: 23.1 µM [inhibitor, single point]. In the case of `CC1CC(C)C[N+](=C2C=C(N3CCCC3)CC(C)(C)C2)C1` (stereo unspecified), the Potency is reported as active: 0.0082 µM. For `CCOc1ccc(S(=O)(=O)N2CCCC(C(=O)NCc3ccccc3)C2)cc1` (stereo unspecified), the Potency was “inactive”. For `COCC1CCN(C(=O)c2ccc3oc(CCCc4ccccc4)nc3c2)C1` (stereo unspecified), the Potency was inconclusive: 29.1 µM [inhibitor, single point]. In the case of `CN(c1ccccc1)c1ncccn1`, the Potency is reported as “inactive”. For `Cc1ccc2c(c1)C(Cc1ccccc1F)C(=O)N2` (stereo unspecified), the Potency was inconclusive: 29.1 µM [inhibitor, single point]. For `CC(=O)Nc1ccc(SC[C@H](C)CN2CC[C@H](C(C)(C)C)CCC2=O)cc1`, the Potency was inconclusive: 20 µM [inhibitor, single point] and inconclusive: 29.1 µM [inhibitor, single point]. For `Cc1cccc(C(=O)Nc2cc(-c3nc4cccnc4s3)ccc2C)c1`, the Potency was inconclusive: 29.1 µM [inhibitor, single point]. For `O=C(COC(=O)c1cc(-c2cccs2)nn1-c1ccccc1)Nc1cccc([N+](=O)[O-])c1`, the Potency was “inactive”. For `COc1ccc(CNC(=O)CSc2nc3cccnc3s2)cc1`, the Potency was “inactive”. With `COc1cc(C(C)=O)ccc1OCCCOc1cccc2cccnc12` the Potency was inconclusive: 23.1 µM [inhibitor, single point]. With `CSc1ccc(-c2sc(Nc3cccc4ccccc34)n[n+]2-c2ccccc2)cc1` the Potency was inconclusive: 20.6 µM [inhibitor, single point]. With `COc1cc2c(=O)n(Cc3ccccc3Cl)c(=O)n(CC(=O)Nc3ccc(C)c(C)c3)c2cc1OC` the Potency was active: 7.31 µM. With `CCn1nc(C(=O)Nc2ccc(N3CCOCC3)cc2)c2ccccc2c1=O` the Potency was inconclusive: 29.1 µM [inhibitor, single point]. With `CCOC(=O)c1cccc(NC(=O)NCc2cccn2Cc2ccccc2)c1` the Potency was inconclusive: 25.9 µM [inhibitor, single point]. With `CCOc1cc(CNC(CC)CO)ccc1OCC(=O)Nc1cccc(C(F)(F)F)c1` (stereo unspecified) the Potency was active: 25.9 µM. For `CC(c1ccccc1)C(NC(=O)OCC1c2ccccc2-c2ccccc21)C(=O)O` (stereo unspecified), the Potency was “inactive”. With `CCc1ccc(OCC2c3cc(OC)c(OC)cc3CCN2C(C)=O)cc1` (stereo unspecified) the Potency was active: 13 µM. For `COCCCNC(=O)c1cn(C)c(=O)c2cc(OC)c(OC)cc12`, the Potency was “inactive”. In the case of `Cc1ccccc1NS(=O)(=O)c1ccc2[nH]cc(C(=O)N(C)Cc3ccco3)c(=O)c2c1`, the Potency is reported as “inactive”. With `C=C1CCN([C@H](C(=O)NCc2ccc(Cl)cc2)C(C)C)S(=O)(=O)c2ccccc21` the Potency was “inactive”. For `Cc1c(Cl)cccc1NC(=S)NC1CC1`, the Potency was “inactive”. For `Cc1ccc2occ(CC(=O)N(Cc3ccccc3Cl)C3CCS(=O)(=O)C3)c2c1` (stereo unspecified), the Potency was active: 23.1 µM. For `CC(=O)c1ccc(NC(=O)Nc2ccc(NS(=O)(=O)c3ccc(C)cc3)cc2)cc1`, the Potency was inconclusive: 16.4 µM [inhibitor, single point]. With `COCC(=O)N(C)[C@H]1C[C@H]2c3cc(Oc4ccccc4C)ccc3CCN2C(=O)[C@H]1[C@H](C)O` the Potency was inconclusive: 20.6 µM [inhibitor, partial curve, poor fit]. In the case of `CC(=O)Nc1ccc(S(=O)(=O)N(C)CC(=O)Nc2ccccc2N2CCCC2)cc1`, the Potency is reported as inconclusive: 18.4 µM [inhibitor, single point]. In the case of `COc1ccc(NS(=O)(=O)c2ccc(C)c(C(=O)NCc3ccccc3CN3CCCC3)c2)cc1`, the Potency is reported as inconclusive: 18.4 µM [inhibitor, single point]. For `CSc1ccc(C(=O)C2CCCN(C(=O)CCc3cnn(C)c3)C2)cc1` (stereo unspecified), the Potency was inconclusive: 18.4 µM [inhibitor, single point]. In the case of `CC1CCN(S(=O)(=O)c2ccc(N=NC3=C(O)CC(C)(C)CC3=O)cc2)CC1`, the Potency is reported as inconclusive: 29.1 µM [inhibitor, single point]. In the case of `COC(=O)c1ccc(NC(=O)C(C)Oc2ccccc2)cc1` (stereo unspecified), the Potency is reported as inconclusive: 23.1 µM [inhibitor, single point]. For `CC1CCCCN1CC(=O)Nc1ccc(Oc2ccccc2)cc1` (stereo unspecified), the Potency was inconclusive: 16.4 µM [inhibitor, partial curve]. In the case of `CC(=O)c1ccc(NC(=O)CN2C(=O)CCc3ccccc32)cc1`, the Potency is reported as “inactive”. In the case of `COc1ccc(-c2cc(C(F)F)n3ncc(C(=O)N4CCCc5ccccc54)c3n2)cc1`, the Potency is reported as inconclusive: 10.3 µM [inhibitor, partial curve, poor fit]. In the case of `COc1ccc(Oc2nc(C)cc(C)c2C#N)cc1`, the Potency is reported as “inactive”. For `CC(=O)Nc1ccc(/C=C/c2nc(-c3ccccc3O)n(-c3ccccc3)n2)cc1`, the Potency was inconclusive: 11.6 µM [inhibitor, partial curve]. In the case of `COC(=O)C1CN(C(=O)C(C)Oc2ccccc2Cl)c2ccccc2O1` (stereo unspecified), the Potency is reported as “inactive”. For `CCOC(=O)C1=NOC(CNC(=O)C2=NOC(CNC(=O)c3c(-c4ccccc4Cl)noc3C)C2)C1` (stereo unspecified), the Potency was “inactive”. For `NS(=O)(=O)c1ccc(CNC(=S)NCc2ccc(Cl)cc2)cc1`, the Potency was inconclusive: 14.6 µM [inhibitor, partial curve]. With `Cc1c(N=Cc2ccc(Br)s2)cccc1[N+](=O)[O-]` the Potency was “inactive”. For `Cc1cccc(N(C)C(=O)c2coc(=O)c3ccccc23)c1`, the Potency was “inactive”. In the case of `Cc1c(OCc2ccc(C(=O)O)o2)ccc2c3c(c(=O)oc12)CCC3`, the Potency is reported as “inactive”. For `CCSC1=NCCN1S(=O)(=O)c1ccc(NC(C)=O)cc1`, the Potency was inconclusive: 29.1 µM [inhibitor, single point]. For `CN(C(=O)c1ccc(NC(=O)Cc2cccc(NC(=O)C3CCCN(C(=O)C4CCC4)C3)c2)cc1)C1CC1` (stereo unspecified), the Potency was inconclusive: 29.1 µM [inhibitor, single point]. For `CCCCNC(=S)NNC(=O)c1csc(CC)c1`, the Potency was inconclusive: 20.6 µM [inhibitor, single point]. With `COCCN=c1scc(-c2cccs2)n1/N=C(\C)c1ccco1` the Potency was inconclusive: 25.9 µM [inhibitor, single point]. With `CCCC(=O)Nc1nc2c(c(=O)[nH]1)CCCC2` the Potency was inconclusive: 29.1 µM [inhibitor, single point]. With `COc1ccc2nc(N3CCN(C(=O)C4COc5ccccc5O4)CC3)sc2c1` (stereo unspecified) the Potency was inconclusive: 29.1 µM [inhibitor, single point]. In the case of `Cn1c(=O)oc2cc(S(=O)(=O)N3CCCC(C(=O)NCCc4ccc(Cl)cc4)C3)ccc21` (stereo unspecified), the Potency is reported as inconclusive: 25.9 µM [inhibitor, single point]. With `O=C1N[C@@H](Cc2c[nH]c3ccccc23)COC(=O)[C@@H](Cc2ccc(F)cc2)C/C=C\C[C@H]1CC(=O)N(CCO)Cc1ccccc1` the Potency was active: 20.6 µM. With `COc1ccc(OC)c(-n2nnnc2SCC(=O)Nc2ccccc2N2CCOCC2)c1` the Potency was inconclusive: 29.1 µM [inhibitor, single point]. For `Cc1cccc(C)c1NC(=O)C(c1cc2ccccc2o1)N1CCN(C)CC1` (stereo unspecified), the Potency was “inactive”. With `COc1ccc(CNC(=O)Cn2cncn2)cc1OC` the Potency was inconclusive: 6.51 µM [inhibitor, single point]. For `CS(=O)(=O)N1CCCC(C(=O)Nc2ccc(F)cc2F)C1` (stereo unspecified), the Potency was “inactive”. In the case of `Cc1ccc(C2=NNC(=Nc3ccc(F)cc3)SC2)cc1`, the Potency is reported as inconclusive: 29.1 µM [inhibitor, single point]. With `CCC(CC)C(=O)Nc1cccc(S(=O)(=O)c2cccc(NC(=O)C(CC)CC)c2)c1` the Potency was “inactive”. For `Cc1ccccc1NC(=O)NNC(=O)OC(C)(C)C`, the Potency was “inactive”. With `CCOc1cc(C2C(C(=O)OC)=CN(C3CCCC3)C=C2C(=O)OC)cc(Br)c1O` the Potency was “inactive”. In the case of `Cc1ccc(NC2=NCC(=O)N2Cc2ccc3c(c2)OCO3)cc1`, the Potency is reported as inconclusive: 29.1 µM [inhibitor, single point]. In the case of `COc1ccc(NC(=S)N2CCN(C/C=C/c3ccccc3)CC2)cc1`, the Potency is reported as inconclusive: 16.4 µM [inhibitor, partial curve]. For `Cc1ccc(-c2nc(-c3cc4c([nH]c3=O)CC(C)(C)CC4=O)sc2C)cc1`, the Potency was inconclusive: 14.6 µM [inhibitor, single point]. In the case of `Cc1ccc2c(c1)c1c3n2CCN(C(=O)Cn2c(-c4ccccc4)noc2=O)C3CCC1` (stereo unspecified), the Potency is reported as inconclusive: 29.1 µM [inhibitor, single point]. With `COC(=O)c1ccccc1NC(=O)Cn1c(CCC(=O)O)ccc1-c1cccs1` the Potency was “inactive”.
